# Reference: the supplement of paper PMC6531468
# The list shows a part of the results. Read counts after selection give these values, which scatter widely. Each score is taken over the longer molecules that contain the sequence shown.
# Legend:
# Test in all cases: 6-mer SELEX enrichment z-score vs GST control; IMP3 is the RNA-binding protein IGF2BP3; higher = more enriched by binding
# IMP3 KH1-4 = details: construct: KH1-4 (164-579); SELEX round: R4
# Procedure: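 SELEX-seq with GST-tagged IMP3 KH1-4 (Pro164-Lys579) and an N40 RNA pool, round 4. 6-mer z-score of sequence-tag enrichment normalised to the corresponding GST SELEX round; RNA k-mers written as DNA (T for U).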
# IMP3 RRM1-2 = details: construct: RRM1-2 (1-163); SELEX round: R2
# Procedure: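 SELEX-seq with GST-tagged IMP3 RRM1-2 (Met1-Asn163) and an N40 RNA pool, round 2. 6-mer enrichment z-score normalised to GST SELEX. RNA written as DNA (T = U).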
# IMP3 full-length = IMP3 full-length (UniProt O00425); details: construct: FL IMP3 (1-579); SELEX round: R4
# Procedure: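 SELEX-seq with GST-tagged full-length IMP3 and an N40 RNA pool, round 4. Each 6-mer is scored as an enrichment z-score of sequence tags containing it, normalised to the matching GST SELEX round. RNA written as DNA (T = U).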
# IMP3 KH1-2 = details: construct: KH1-2 (164-376); SELEX round: R4
# Procedure: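 SELEX-seq with GST-tagged IMP3 KH1-2 (Pro164-Phe376) and an N40 RNA pool, round 4 (stringent 300/600 mM KCl washes). 6-mer z-score of sequence-tag enrichment normalised to the corresponding GST SELEX round; RNA k-mers written as DNA (T for U).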
# IMP3 KH3-4 = details: construct: KH3-4 (377-579); SELEX round: R4
# Procedure: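 SELEX-seq with GST-tagged IMP3 KH3-4 (Pro377-Lys579) and an N40 RNA pool, round 4. 6-mer z-score of sequence-tag enrichment normalised to the corresponding GST SELEX round; RNA k-mers written as DNA (T for U).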
# IMP3 RRM1-2, sequence (chain, as listed by the source): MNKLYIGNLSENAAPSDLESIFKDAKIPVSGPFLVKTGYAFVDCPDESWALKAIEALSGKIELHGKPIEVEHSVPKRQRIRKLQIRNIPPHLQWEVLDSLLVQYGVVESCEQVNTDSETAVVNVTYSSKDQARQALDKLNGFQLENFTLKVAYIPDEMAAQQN
# IMP3 KH1-4, sequence (chain, as listed by the source): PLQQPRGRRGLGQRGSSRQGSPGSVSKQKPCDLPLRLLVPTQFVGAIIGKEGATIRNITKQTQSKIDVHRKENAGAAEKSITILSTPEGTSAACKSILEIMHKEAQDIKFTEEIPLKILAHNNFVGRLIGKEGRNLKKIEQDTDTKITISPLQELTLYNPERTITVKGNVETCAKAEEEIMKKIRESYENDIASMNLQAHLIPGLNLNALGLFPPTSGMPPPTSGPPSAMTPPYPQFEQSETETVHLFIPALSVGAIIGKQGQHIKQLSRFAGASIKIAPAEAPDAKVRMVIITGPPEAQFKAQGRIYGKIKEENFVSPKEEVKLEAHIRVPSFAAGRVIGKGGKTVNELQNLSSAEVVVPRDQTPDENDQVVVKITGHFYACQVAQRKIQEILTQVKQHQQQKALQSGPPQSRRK
# UniProt O00425, sequence (O00425 whole entry): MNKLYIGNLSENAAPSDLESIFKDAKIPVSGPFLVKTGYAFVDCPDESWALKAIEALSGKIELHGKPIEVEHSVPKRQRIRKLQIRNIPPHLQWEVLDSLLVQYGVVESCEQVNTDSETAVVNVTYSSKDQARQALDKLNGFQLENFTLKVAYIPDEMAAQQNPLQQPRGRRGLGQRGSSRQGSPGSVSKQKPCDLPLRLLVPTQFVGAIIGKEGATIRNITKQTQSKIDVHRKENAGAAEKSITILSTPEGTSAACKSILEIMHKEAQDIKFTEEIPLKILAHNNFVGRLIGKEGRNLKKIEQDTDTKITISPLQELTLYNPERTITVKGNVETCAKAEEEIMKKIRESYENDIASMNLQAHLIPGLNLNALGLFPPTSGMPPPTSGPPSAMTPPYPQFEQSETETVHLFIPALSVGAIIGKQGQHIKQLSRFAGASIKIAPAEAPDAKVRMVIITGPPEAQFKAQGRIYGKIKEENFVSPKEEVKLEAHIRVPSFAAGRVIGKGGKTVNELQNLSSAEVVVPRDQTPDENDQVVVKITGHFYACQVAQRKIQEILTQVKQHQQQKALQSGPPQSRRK
# IMP3 KH3-4, sequence (chain, as listed by the source): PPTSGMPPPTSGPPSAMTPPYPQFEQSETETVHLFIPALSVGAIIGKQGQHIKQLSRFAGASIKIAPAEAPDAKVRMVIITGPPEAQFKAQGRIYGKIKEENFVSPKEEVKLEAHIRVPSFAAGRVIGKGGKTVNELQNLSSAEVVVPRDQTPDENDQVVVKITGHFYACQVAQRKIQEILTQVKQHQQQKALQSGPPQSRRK
# IMP3 KH1-2, sequence (chain, as listed by the source): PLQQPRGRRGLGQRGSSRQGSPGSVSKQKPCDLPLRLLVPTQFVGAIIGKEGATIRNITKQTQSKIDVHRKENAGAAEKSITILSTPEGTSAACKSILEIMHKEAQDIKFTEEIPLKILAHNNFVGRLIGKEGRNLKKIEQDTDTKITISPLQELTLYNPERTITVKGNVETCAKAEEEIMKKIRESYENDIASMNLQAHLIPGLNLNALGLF
Sequence,6-mer SELEX enrichment z-score (IMP3 KH1-4),6-mer SELEX enrichment z-score (IMP3 RRM1-2),6-mer SELEX enrichment z-score (IMP3 full-length),6-mer SELEX enrichment z-score (IMP3 KH1-2),6-mer SELEX enrichment z-score (IMP3 KH3-4)
CGGGGC,1.03,-0.122,1.05,1.25,1.09
TCTGTG,0.042,0.266,-0.019,-0.07,-0.019
CGGGAT,-0.184,-0.14,0.098,-0.134,-0.049
AAAACA,-0.157,0.222,-0.687,0.477,1.15
GGAAGT,0.633,-0.258,0.085,0.516,0.554
ACTTGA,-0.931,-0.491,-0.846,-0.954,-0.836
GAAACA,0.112,-0.185,0.116,0.305,0.625
TGCGCA,0.078,0.23,0.431,0.104,-0.041
ACAGAC,0.321,0.804,0.74,0.753,-0.022
GTCTCG,-0.067,0.791,0.635,0.137,0.252
CTTAGT,-0.189,0.35,-0.19,-0.154,-0.05
CCTAGA,-0.899,-0.875,-1.1,-0.904,-0.932
GCGCAC,0.248,0.354,1.43,0.178,-0.139
TAGCAA,0.055,0.232,0.136,0.035,0.127
CGCTGG,-0.122,0.009,0.23,-0.006,-0.163
GATGAG,0.222,-0.583,-0.35,0.091,0.452
CCAGTG,-0.344,-0.336,-0.107,-0.339,-0.481
CGTTAT,-0.019,0.14,-0.069,0.015,0.091
ATATTC,1.42,0.435,0.546,1.38,1.46
TAAGTT,0.235,0.102,-0.149,0.131,0.399
